{"source": "the supplement of paper PMC11417369", "note": "Some of the results follow.", "data": [{"system": "PF3D7_0420300 AP2 domain 1 (GST-tagged)", "experiment": "gcPBM binding intensity (ln(normalized median fluorescence intensity)); higher = stronger DNA binding", "procedure,_shortened": "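Plasmodium falciparum DNA-binding domains carrying a GST tag were expressed in E. coli and applied for 1 h, at about 25 μg on average, to an Agilent 4 × 180k array. The array held primer-extended double-stranded 36-bp intergenic genomic probes together with negative controls, and binding took place in 1× PBS with 1% milk, 0.2 mg/ml BSA, 0.5% salmon testes DNA and 0.03% Triton X-100. An Alexa488 anti-GST antibody detected bound protein, and the array was scanned at 488 nm. Binding intensity is taken as the highest Masliner-normalised natural-log median intensity across replicate spots of either probe orientation.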", "values": [{"sequence": "TTTCACATATATATGGTGCATATTTTATGTGTAAAT [GTGCAC_site9937]", "gcPBM binding intensity (ln)": 9.12}, {"sequence": "TTTGTAACTTCTTTCACACATATATATATATATATA [CACACA_site5603]", "gcPBM binding intensity (ln)": 9.35}, {"sequence": "GTGTGCAAAAATTGTTGTACATTATATATAAAAAAA [XGTACX_site3246]", "gcPBM binding intensity (ln)": 9.26}, {"sequence": "TATATATAAAGCAGTACACACATTTATTTTAGATAC [CACACA_site3387]", "gcPBM binding intensity (ln)": 9.64}, {"sequence": "AGTGATAATTTAAAAAGTACAAATGAAATTTAGCTA [XGTACX_site3375]", "gcPBM binding intensity (ln)": 9.25}, {"sequence": "AGAGAGAAAGCTATAACATGCAAAAATTTTTAGAAC [TGCATGCA_site420]", "gcPBM binding intensity (ln)": 9.46}, {"sequence": "ATACAAATAAAAAAAAAAATTATAAAATTATAAAAT [CACACA_negctrl_site914]", "gcPBM binding intensity (ln)": 9.22}, {"sequence": "CATATATATATATATTGTACACATTTTTTATAAAAA [XGTACX_site2526]", "gcPBM binding intensity (ln)": 9.12}, {"sequence": "TATTTGCAATATAACACACACAAAAAAAGACTCGGA [CACACA_site6891]", "gcPBM binding intensity (ln)": 9.93}, {"sequence": "TATATGTAATATATATGTACGTATAATATAATATTG [XGTACX_site8620]", "gcPBM binding intensity (ln)": 9.27}, {"sequence": "AATTATACATTATATTGTACATATGAATAATTAAAA [XGTACX_site6829]", "gcPBM binding intensity (ln)": 9.05}, {"sequence": "TTAAAAAAAATTTCAAGTACAAAGTAATATATATAT [XGTACX_site5718]", "gcPBM binding intensity (ln)": 9.2}, {"sequence": "AAAAAAATTGGGAAAAGTACTTGCAGCTAGCTAAAA [XGTACX_site5178]", "gcPBM binding intensity (ln)": 9.18}, {"sequence": "AAACAAATATAATATTGTACATATATATATATATAT [XGTACX_site3105]", "gcPBM binding intensity (ln)": 9.16}, {"sequence": "GGATTGATAAGTGGTACACACATATATATTATATAT [CACACA_site2866]", "gcPBM binding intensity (ln)": 9.49}, {"sequence": "AAATATAAAAATAGCACACATATATACCTATATATA [CACACA_site4204]", "gcPBM binding intensity (ln)": 9.5}, {"sequence": "GCATTGGGAATATATAGTACATATATATATATATAA [XGTACX_site2967]", "gcPBM binding intensity (ln)": 9.14}, {"sequence": "TTTTTCTTTTTCTTTTTTTCTTTTTTTTTTTTTTTC [GTGCAC_negctrl_site727]", "gcPBM binding intensity (ln)": 8.96}, {"sequence": "CAGACGCACGTATTTGCACACATTGCCACGTAATTA [CACACA_site3349]", "gcPBM binding intensity (ln)": 9.42}, {"sequence": "AACCATTCAACTGATGCATGCATTTAACATATAAAT [TGCATGCA_site961]", "gcPBM binding intensity (ln)": 9.24}, {"sequence": "TCATTTCACAAACACACACACACAATATATTTCCTT [CACACA_site3905]", "gcPBM binding intensity (ln)": 10.1}, {"sequence": "CCACAAGCAGCGGAAACATGCATATGTTGAAATAAT [TGCATGCA_site610]", "gcPBM binding intensity (ln)": 9.02}, {"sequence": "AACAAAAAAAAAAAATGTACATATATATAATATATT [XGTACX_site3829]", "gcPBM binding intensity (ln)": 9.23}, {"sequence": "GTTAAGAATATGTGTACACATATACATAAATACATA [CACACA_site4254]", "gcPBM binding intensity (ln)": 9.45}]}]}
